# From article PMC4336329 (PLoS ONE, 2015)
# Screen size: about 310,000 compounds; about 2,200 (0.71%) showed an effect of 50% or more. Effects have a minus sign here. The list shows a part of the results.
# Biological target: human ether-à-go-go-related gene (hERG) potassium channel (human, UniProt Q12809)
# Assay: primary screen, population patch clamp on CHO cells stably expressing hERG
# human ether-à-go-go-related gene (hERG) potassium channel, sequence (Q12809 whole entry, looked up): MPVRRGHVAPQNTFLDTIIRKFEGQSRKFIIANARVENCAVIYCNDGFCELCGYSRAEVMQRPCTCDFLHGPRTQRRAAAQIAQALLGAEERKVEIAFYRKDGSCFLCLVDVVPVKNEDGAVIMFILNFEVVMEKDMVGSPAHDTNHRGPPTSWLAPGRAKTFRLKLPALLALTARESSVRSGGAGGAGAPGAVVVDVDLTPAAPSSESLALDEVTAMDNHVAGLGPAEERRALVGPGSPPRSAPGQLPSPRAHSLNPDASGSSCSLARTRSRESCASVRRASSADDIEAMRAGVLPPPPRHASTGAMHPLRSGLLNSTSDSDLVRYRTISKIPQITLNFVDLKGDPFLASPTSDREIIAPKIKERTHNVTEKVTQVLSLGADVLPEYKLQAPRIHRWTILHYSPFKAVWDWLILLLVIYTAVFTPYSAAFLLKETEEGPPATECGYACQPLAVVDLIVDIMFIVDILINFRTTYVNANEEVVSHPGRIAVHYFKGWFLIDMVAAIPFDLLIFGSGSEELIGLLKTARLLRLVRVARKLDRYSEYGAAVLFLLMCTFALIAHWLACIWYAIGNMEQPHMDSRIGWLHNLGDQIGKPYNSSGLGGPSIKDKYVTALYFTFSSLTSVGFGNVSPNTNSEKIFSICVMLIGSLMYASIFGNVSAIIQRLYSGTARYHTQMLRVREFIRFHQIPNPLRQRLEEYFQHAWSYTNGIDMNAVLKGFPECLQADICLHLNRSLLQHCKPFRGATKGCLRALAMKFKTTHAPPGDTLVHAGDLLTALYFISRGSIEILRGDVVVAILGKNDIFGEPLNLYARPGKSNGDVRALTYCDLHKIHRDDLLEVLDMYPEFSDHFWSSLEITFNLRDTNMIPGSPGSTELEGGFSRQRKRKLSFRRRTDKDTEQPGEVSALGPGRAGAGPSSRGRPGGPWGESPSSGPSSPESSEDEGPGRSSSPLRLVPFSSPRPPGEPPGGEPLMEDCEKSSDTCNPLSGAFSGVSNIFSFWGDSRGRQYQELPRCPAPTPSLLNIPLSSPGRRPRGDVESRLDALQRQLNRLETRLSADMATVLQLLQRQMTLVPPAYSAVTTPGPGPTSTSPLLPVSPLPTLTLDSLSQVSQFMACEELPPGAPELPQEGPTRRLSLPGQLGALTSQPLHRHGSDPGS
row,SMILES,"hERG current change (%, negative = inhibition) at 1uM [%]"
1,CCC(C)N(C(=O)COC(=O)COc1c(C)cc(C)cc1C)C1CCS(=O)(=O)C1 (centres unmarked),10.6
2,O=C(O)C1C2CCC(O2)C1C(=O)NCc1ccncc1 (centres unmarked),12.5
3,CCN1C(=O)[C@H]2[C@@H](c3ccc(C)cc3)N3C(=O)N(c4ccc(C(F)(F)F)cc4)C(=O)[C@@]3(CC)[C@H]2C1=O,9.75
4,Cn1cc(Cl)c(/C(N)=N/OC(=O)c2ccccc2C(F)(F)F)n1,8.48
5,C=CCNC(=O)c1ccc2nc(-c3ccccc3)c(-c3ccccc3)nc2c1,0.892
6,CCOC(=O)COc1c(OC)cc(Cl)cc1C1Nc2ccccc2C(=O)N1c1cccc(C)c1 (centres unmarked),6.03
7,CCc1ccc(CN2CCN(C(=O)Cc3ccccc3)CC2)cc1.O=C(O)C(=O)O,5.9
8,COC(=O)c1ccc(COC(=O)CNC(=O)c2ccc(-c3ccccc3)cc2)cc1,-7.46
9,CC(C)C(=O)Nc1ccc(C(=O)NNC(=S)NC(=O)c2cccs2)cc1,9.5
10,O=C(CN1C(=O)CCC1=O)NNc1ccc2ccccc2c1,4.69
11,CCCc1nc(N2CCCC2)c(C#N)c2c1CCCC2,4.69
12,CC(=O)OCc1c(C(F)(F)F)nn(C)c1Sc1ccccc1,4.81
13,CCOc1ccc2nc(SCC(=O)NCc3ccc(S(N)(=O)=O)cc3)[nH]c2c1,31.1
14,COc1ccc(-c2csc(NC(=O)CN3C(=O)C4CCCCC4C3=O)n2)c(OC)c1 (centres unmarked),16.1
15,CCn1c(Nc2ccccc2Cl)nc2ccccc21,9.51
16,Cc1ccc(C(=O)Nc2cccc(NC(=O)c3ccc(C)o3)n2)o1,-1.68
17,O=C(Nc1ccc(C(=O)c2ccc(C(=O)O)c(C(=O)O)c2)cc1)c1ccccc1,16.3
18,CCCCCNC(=O)C(C)NS(=O)(=O)c1ccc(OC)cc1 (centres unmarked),-12.5
19,CCOC(=O)NC(=O)C(=CNc1ccccc1C)C(=O)NC(=O)OCC,-1.35
20,CCc1cc2c(=O)c(-c3cnn(-c4ccccc4)c3)c(C)oc2cc1OCC(=O)Nc1ccc(F)c(F)c1,16.2
21,CC1CCCCN1C(=O)Cn1cc(C#N)c2ccccc21 (centres unmarked),12
22,O=C(C[n+]1ccccc1)N/N=C/c1ccco1.[Cl-],13.6
23,O=[N+]([O-])c1ccccc1OCCN1CCOCC1,6.83

row,SMILES,"hERG current change (%, negative = inhibition) at 1uM [%]"
1,COc1ccccc1C(=O)N/C(=C\c1ccc(Br)cc1)C(=O)NCCO,8.07
2,CCOc1ccc(N2CC(O)=C(c3ccccc3)C2=N)cc1,10.5
3,CCOC(=O)Cc1c(C)nc(-c2ccccc2)[nH]c1=O,4.47
4,CCCC(=O)Nc1cccc(NC(=O)c2ccc3c(c2)OCCO3)c1,12.2
5,Clc1cccc(OCCN2CCNCC2)c1.O=C(O)C(=O)O,8.77
6,COc1ccc(C(C[N+](=O)[O-])c2c(-c3ccccc3)cc3ccccn23)c(OC)c1 (centres unmarked),0.268
7,c1ccc(-c2nnc(-c3ccccc3)nn2)cc1,10.5
8,CC1=C(C(=O)N(C)CCC#N)C2(CCCCC2)OC1=O,-0.549
9,COCC(C)NC(=S)N1CCN(c2ccccc2Cl)CC1 (centres unmarked),8.29
10,Cc1cccc(OP(N)(=O)Oc2cccc(C)c2C)c1C,8.32
11,CC1(C)Cc2cccc(OCC(=O)NCc3cccs3)c2O1,8.47
12,Cc1onc(-c2ccccc2Cl)c1C(=O)Nc1ccc(Cl)cn1,12.4
13,COc1ccc2c(Cl)c(-c3nnc4n3CCCCC4)sc2c1,-7.35
14,CCc1ccc2[nH]c(=O)c(CN(Cc3ccccc3)C(=O)Nc3ccccc3OC)cc2c1,8.18
15,Cc1nc2sccn2c(=O)c1S(=O)(=O)Nc1ccc(N2CCN(C)CC2)cc1,21.4
16,Cc1cc(C)nc(-n2nc(C)cc2NC(=O)CN2CCCC(C)C2)n1 (centres unmarked),-12.1
17,CN(c1ccc(OCC(=O)NCc2cccnc2)cc1)S(=O)(=O)c1ccc(Cl)cc1,-4.28
18,Clc1cccc(Cl)c1CSc1nnc2ccccn12,9.86
19,N#Cc1c(-c2ccccc2)nc(SCc2nc(N)nc(N3CCCCC3)n2)[nH]c1=O,3.75
20,COc1ccc(CC2(CO)CCN(CC3=CC[C@H]4C[C@@H]3C4(C)C)CC2)cc1,-6.02
21,CC(=O)c1ccc(Sc2nnnn2-c2ccccc2)c([N+](=O)[O-])c1,13.7
22,O=C(CCN1CCOCC1)NNC(=O)/C(=C/c1ccccc1)NC(=O)c1ccccc1,5.72
23,Cc1ccc(S(=O)(=O)N/N=C/c2cnn(C)c2C)cc1,7.25

row,SMILES,"hERG current change (%, negative = inhibition) at 1uM [%]"
1,N#Cc1c(C(F)(F)F)cc(-c2ccc(Cl)c(Cl)c2)nc1SCCN1CCOCC1,11.6
2,COc1cccc(CNC(=O)CCC2CCCN(Cc3cc4ccccc4o3)C2)c1 (centres unmarked),-34.3
3,CCCc1[nH]nc2c1C(c1ccc(OC(=O)c3ccco3)cc1)C(C#N)=C(N)O2 (centres unmarked),-28.2
4,O=C(NCCC1=CCCCC1)c1ccc(-n2cncn2)c([N+](=O)[O-])c1,0.601
5,Cn1c(=O)cc(N2CCc3ccccc32)[nH]c1=O,16.1
6,CCC(=Nc1ccccc1O)C1=C(O)CC(c2ccccc2)CC1=O (centres unmarked),1.41
7,Cc1ccc(OCc2ccccc2Br)c([N+](=O)[O-])n1,22.7
8,Cc1ccccc1N1C(=O)C2C3C=CC(C2C1=O)N(C)C3=O (centres unmarked),1.77
9,Fc1ccc(NC(=S)NCc2ccc3c(c2)OCO3)cc1,6.76
10,Oc1ccc(N2Cc3ccccc3C2)cc1,13.7
11,COc1nc(NCCO)nc(Nc2cc(Cl)ccc2OC)n1,12.9
12,CCn1c(SCC(=O)Nc2sc(C)c(C)c2C#N)nnc1C(C)C,9.07
13,O=C(Cc1ccccc1[N+](=O)[O-])NC1CC2CCC1C2 (centres unmarked),15.6
14,COc1cc(C(=O)N2CCN(c3ccccc3Cl)CC2)ccc1OCC(=O)N1CCOCC1,8.37
15,O=S(=O)(N/N=C1\CC(c2ccccc2)Oc2ccccc21)c1ccccc1 (centres unmarked),2.1
16,Cc1nn(-c2ccc(Cl)cc2Cl)c(C)c1C(=O)O,11.4
17,COc1ccc(NC(C)=O)cc1NC(=O)CN1CCN(C(=O)c2ccco2)CC1,11.4
18,CN(c1ccccc1)S(=O)(=O)c1ccc(Cl)c(C(=O)Nc2ccncc2)c1,-1.16
19,CCS(=O)(=O)N1CCC(C(=O)Oc2ccccc2Br)CC1,11.6
20,CC(OC(=O)c1cccs1)C(=O)NCC1CCCO1 (centres unmarked),-4.24
21,CSCCCN1CCCC(CO)(Cc2ccccc2F)C1 (centres unmarked),4.04
22,CCCCCCC(=O)Nc1c2c(nc3ccccc13)N(C)CC2,-30.9
23,CSc1ccc(Cl)c(C(=O)OCC(=O)NC2CC2)c1,13.1

row,SMILES,"hERG current change (%, negative = inhibition) at 1uM [%]"
1,FC(F)Oc1ccccc1/C=N/n1cnc2ccccc21,19
2,CCCCNC(=O)Nc1ccccc1C(=O)NCCC,14.2
3,O=C(Cn1nc(C(=O)O)c2ccccc2c1=O)Nc1cccc(Br)c1,14.5
4,CCOc1ccccc1NC(=O)c1cc(-c2cc(OC)c(OC)c(OC)c2)nc2ccccc12,15.2
5,CCOC(=O)c1c(C)[nH]c2cc(Br)c(OC)cc12,9.38
6,Cc1cc(/C=C2\SC(=Nc3ccc(F)cc3)NC2=O)c(C)n1-c1ccc(S(N)(=O)=O)cc1,8.34
7,COC(=O)c1ccccc1NC(=O)c1c(O)c2c([nH]c1=O)CCCC2,7.98
8,COc1ccc(/C(O)=C2/C(=O)C(=O)N(CCCN(C)C)C2c2ccccc2)cc1OC (centres unmarked),-5.52
9,O=C(NCCN1CCOCC1)c1ccc(=O)oc1,15.6
10,Cc1csc2nc(CCNS(=O)(=O)c3ccc4c(c3)OCCO4)cn12,5.26
11,COc1cccc2sc3ccc(C#CC4(O)CCCCC4)cc3c(=O)c12,-0.207
12,CCc1ccccc1NC(=O)NC1CC2CCC(C1)N2Cc1ccco1 (centres unmarked),18.3
13,O=C(Nc1ccc(S(=O)(=O)N2CCCC2)cc1)c1ccc(OCC2CCCO2)cc1 (centres unmarked),8.86
14,CC1(C)C2CC[C@]3(C)C(CC=C4[C@@H]5C[C@@](C)(CO)[C@@H](O)C[C@]5(C(=O)O)CC[C@]43C)[C@@]2(C)CC[C@@H]1O (some centres unmarked),14.8
15,O=c1[nH]nc(Cc2ccc([N+](=O)[O-])cc2)c2ccccc12,-32.3
16,Cc1[nH]ccc2c1[nH]c1cc(=O)ccc12,-4.88
17,Cc1cccc(S(=O)(=O)N2CN(CC3CCCO3)c3nc4ccccc4nc32)c1 (centres unmarked),-4.07
18,CC1CCN(c2c(NCc3ccc(C(=O)NCc4ccccc4)cc3)c(=O)c2=O)CC1,6.53
19,COc1ccc(-n2cc(-c3ccc(OC(F)F)cc3)[n+]3c2CCCCC3)cc1.[Br-],-52.9
20,COc1cc(/C=C(\C#N)C(=O)N2CCCCC2)ccc1O,12.9
